Test results published in PMC4336329 (PLoS ONE, 2015).
Out of some 310,000 compounds screened, about 14,000 (4.5%) showed an effect of 50% or more. Effects have a minus sign here. The list shows a part of the results.

Target: human ether-à-go-go-related gene (hERG) potassium channel (human, UniProt Q12809)
Experiment: primary screen, population patch clamp on CHO cells stably expressing hERG
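Further: peak tail current of the secondary pulse compared with the same well before compound.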

Sequence of human ether-à-go-go-related gene (hERG) potassium channel (Q12809 whole entry, looked up): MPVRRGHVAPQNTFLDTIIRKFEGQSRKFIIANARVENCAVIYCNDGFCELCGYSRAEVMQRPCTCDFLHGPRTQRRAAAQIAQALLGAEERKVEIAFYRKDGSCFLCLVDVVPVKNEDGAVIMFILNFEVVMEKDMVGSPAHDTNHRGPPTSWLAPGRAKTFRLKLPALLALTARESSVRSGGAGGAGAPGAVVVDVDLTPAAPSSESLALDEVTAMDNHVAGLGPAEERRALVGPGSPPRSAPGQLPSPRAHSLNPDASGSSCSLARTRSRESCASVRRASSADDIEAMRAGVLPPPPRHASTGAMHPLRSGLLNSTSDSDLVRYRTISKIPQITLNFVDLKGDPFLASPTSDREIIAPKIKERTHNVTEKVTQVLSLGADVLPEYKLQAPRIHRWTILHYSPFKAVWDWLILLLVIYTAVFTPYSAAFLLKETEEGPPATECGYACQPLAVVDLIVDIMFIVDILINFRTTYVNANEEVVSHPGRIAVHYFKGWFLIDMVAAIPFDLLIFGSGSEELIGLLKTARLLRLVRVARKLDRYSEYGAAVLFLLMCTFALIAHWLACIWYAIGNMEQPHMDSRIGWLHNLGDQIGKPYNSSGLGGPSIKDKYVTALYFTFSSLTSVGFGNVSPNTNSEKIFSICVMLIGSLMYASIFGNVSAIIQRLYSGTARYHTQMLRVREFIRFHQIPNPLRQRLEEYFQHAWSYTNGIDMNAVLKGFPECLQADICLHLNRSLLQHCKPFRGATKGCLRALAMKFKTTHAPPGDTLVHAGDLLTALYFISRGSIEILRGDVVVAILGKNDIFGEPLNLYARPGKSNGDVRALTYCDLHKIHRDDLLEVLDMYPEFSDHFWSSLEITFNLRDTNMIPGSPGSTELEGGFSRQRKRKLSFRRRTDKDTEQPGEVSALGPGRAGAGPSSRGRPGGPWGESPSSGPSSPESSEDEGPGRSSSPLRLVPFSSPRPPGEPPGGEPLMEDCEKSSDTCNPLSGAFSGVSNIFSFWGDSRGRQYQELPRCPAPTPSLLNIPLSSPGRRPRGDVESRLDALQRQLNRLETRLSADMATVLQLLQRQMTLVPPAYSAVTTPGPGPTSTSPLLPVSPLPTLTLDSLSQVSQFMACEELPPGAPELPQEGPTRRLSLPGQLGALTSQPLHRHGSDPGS

SMILES | hERG current change (%, negative = inhibition) at 10uM
CC12CC(c3ccccc3O1)C(/C(N)=N/NC(=O)c1ccc(F)cc1)C(=O)N2 (centres unmarked) | -6.21%
COc1cccc(/C=N\NC(=O)Cn2nnc3ccccc32)c1O | 14.2%
COc1ccccc1C1=CC(=O)C[C@H](c2ccc3c(c2)OCO3)C1 | 11.2%
CC(O)CNc1ccc([N+](=O)[O-])cc1S(=O)(=O)N1CCOCC1 (centres unmarked) | 5.9%
COc1ccc(/C=C2\SC(=O)N(CCC(=O)Nc3ccccc3)C2=O)cc1OC | -5.49%
Cc1cc(=O)n2nc(N3CCCC(C(=O)NCc4ccc(Cl)cc4)C3)sc2n1 (centres unmarked) | -71.7%
Cc1ccc(S(=O)(=O)N2CCN(C(=O)CCc3c[nH]c4ccccc34)CC2)c(C)c1 | -4.36%
CCCC1(C(=O)OC)NC(c2ccc(OC)cc2OC)C2C(=O)N(c3cccc(C(C)=O)c3)C(=O)C21 (centres unmarked) | -3.51%
Cc1nc2c(c(=O)c3ccccc3n2C)c(=O)n1C1CCCCCC1 | -0.582%
CN(Cc1ccc(OC(F)F)cc1)C(=O)c1ccc2c(=O)n3c(nc2c1)CCC3 | -33.3%
O=C(CN(Cc1ccco1)C(=O)CNS(=O)(=O)c1ccc(Cl)cc1)NCc1ccc(F)cc1 | -30.1%
N#CC(c1ccccc1)N1CCOCC1 (centres unmarked) | 6.63%
CCN(CC)CCN(C(=O)CCS(=O)(=O)c1ccccc1)c1nc2cc(OC)c(OC)cc2s1.Cl | -45%
CCOc1ccccc1-n1c(SCC(=O)N2CCCC2)nnc1-c1ccc(O)cc1 | 9.76%
COc1ccc(NS(=O)(=O)Cc2ccccc2)cc1OC | -9.67%
O=C(NC(=S)Nc1ccccc1Br)c1ccc2c(c1)OCO2 | -56.4%
Cc1nn(-c2ccccc2)cc1/C=N/NS(=O)(=O)c1ccccc1 | -47.9%
COc1cccc(-c2nc(SCC(=O)Nc3nc(-c4ccccc4)c(C)s3)[nH]c(=O)c2C#N)c1 | -0.354%
Cc1ccc(C)n1Cc1ccccc1Cl | 8.85%
COc1cc(N2CCOCC2)ccc1C=C(C#N)C#N | 0.792%
COc1cc(OC)c(OC)cc1/C=N/NC(=O)c1ccc2nc[nH]c2c1 | 10.2%
COc1ccc([N+](=O)[O-])cc1N=Cc1c(O)n(CCc2ccccc2)c(=O)n(C(C)C)c1=O | 4.31%

SMILES | hERG current change (%, negative = inhibition) at 10uM
Cc1nccn1CC(=O)O | 15.7%
O=C1C2C3C=CC(C3)C2C(=O)N1c1cccc(-c2nc3ccccc3o2)c1 (centres unmarked) | 18%
CC1(C)CC(=O)C2=C(C1)Nc1nc(SCCN3CCOCC3)[nH]c(=O)c1C2c1cccs1 (centres unmarked) | 5.91%
COc1cccc(S(=O)(=O)N2CCN(c3ccccc3F)CC2)c1 | -6.35%
O=C(Nc1ccccc1Cl)C1CCCN(S(=O)(=O)c2ccc(F)cc2)C1 (centres unmarked) | 1.62%
CC(C)C(=O)NC(c1ccccc1)c1cc([N+](=O)[O-])c2cccnc2c1O (centres unmarked) | 7.91%
O=C(CCSCCC(=O)NCc1ccccc1)NCc1ccccc1 | -0.563%
CC1CCC2(CC1)NC(=O)N(CC(=O)Nc1ccc3c(c1)CCC3)C2=O (centres unmarked) | 7.97%
Cc1csc(SCC(=O)Nc2ccc(S(=O)(=O)N3CCCC3)cc2)n1 | -7.43%
Cc1ccc(C(C)C)cc1S(=O)(=O)Nc1cccnc1 | 15.1%
COc1ccc(OC)c(NC(=O)c2ccccc2N(Cc2ccccc2)S(C)(=O)=O)c1 | -5.46%
COc1ccccc1-c1nnc(SCCN2CCOCC2)n1-c1ccc(C)cc1 | -10.6%
CSc1ncnc2c1cnn2-c1ccc(C)cc1C | -7.12%
Cc1c(NC(=O)C(C)OC(=O)CNC(=O)c2ccc(C(C)(C)C)cc2)c(=O)n(-c2ccccc2)n1C (centres unmarked) | 13.2%
CC(C)NCC(O)c1ccc(O)c(O)c1.Cl (centres unmarked) | 17%
Cc1ccccc1C(=O)Nc1nnc(-c2ccncc2)o1 | 5.13%
O=S(=O)(c1ccc2c(c1)CCCC2)N1CCNCC1 | 6.05%
CCOc1ccccc1OCC(=O)OC(C)C(=O)Nc1ncc(Cl)cc1Cl (centres unmarked) | -12.2%
O=[N+]([O-])c1ccc(CSc2nnc(-c3cnccn3)o2)cc1 | -17.9%
O=C(NCc1ccc2c(c1)OCO2)c1ccc(CSCc2ccccc2Cl)o1 | 5.89%
Cl.O=C(CN1CCCCC1)Nc1cccc2c1OCO2 | 12.9%
CNCCOc1ccc(Cl)c(Cl)c1.O=C(O)C(=O)O | 12.8%
